In a collection of fitness landscapes (doi:10.1126/science.1257360) one finds enrichment ratio data, which are given here for 153 variants.

This is one part of the list.

B1: PhoQ; a variant is named by its letters at X, in order, P23837 (parent)
chain: MKKLLRLFFPLSLRVRFLLATAAVVLVLSLAYGMVALIGYSVSFDKTTFRLLRGESNLFYTLAKWENNKLHVELPENIDKQSPTMTLIYDENGQLLWAQRDVPWLMKMIQPDWLKSNGFHEIEADVNDTSLLLSGDHSIQQQLQEVREDDDDAEMTHSVAVNVYPATSRMPKLTIVVVDTIPVELKSSYMVWSWFIYVLSANLLLVIPLLWVAAWWSLRPIEALAKEVRELEEHNRELLNPATTRELTSLVRNLNRLLKSERERYDKYRTTLTDLTHSLKTPLXXLQXXLRSLRSEKMSVSDAEPVMLEQISRISQQIGYYLHRASMRGGTLLSRELHPVAPLLDNLTSALNKVYQRKGVNISLDISPEISFVGEQNDFVEVMGNVLDNACKYCLEFVEISARQTDEHLYIVVEDDGPGIPLSKREVIFDRGQRVDTLRPGQGVGLAVAREITEQYEGKIVAGESMLGGARMEVIFGRQHSAPKDE

Variants of B1 are the subject of the experiment. Put plainly: enrichment ratio after two sorts for PhoP signalling (ratio (wild type AVST 3.29)); higher = more functional. Conditions: with PhoP (E. coli).
Regarding GPYT, the enrichment ratio is not above 0.25.
The value for QMGT was not above 0.25; that for QMNL was 3.36; that for YNAV was not above 0.25.
The value for TANH was not above 0.25; that for ILCQ was not above 0.25.
As to DVKA, the enrichment ratio is not above 0.25.
Take VQYI: the enrichment ratio is not above 0.25.
In the case of CSHL, the enrichment ratio was not above 0.25.
On to RGCG, for which the enrichment ratio was not above 0.25.
Turning to VQVD, the enrichment ratio was not above 0.25.
Consider FHRW, for which the enrichment ratio was not above 0.25.
In the case of PNDI, the enrichment ratio is not above 0.25.
Turning to IHHP, the enrichment ratio was not above 0.25.
The value for LAMH was not above 0.25; that for SLAG was 7.42; that for DVFY was not above 0.25.
Consider GFAW, for which the enrichment ratio is not above 0.25.
Under PEHG stands not above 0.25.
For CIHT, the enrichment ratio is not above 0.25.
Consider TARM, for which the enrichment ratio is not above 0.25.
Consider PFHF, for which the enrichment ratio was not above 0.25.
Consider EEID, for which the enrichment ratio is not above 0.25.
Take REVA: the enrichment ratio was not above 0.25.
As to IADE, the enrichment ratio was not above 0.25.
With HGLE, the enrichment ratio was not above 0.25.
As for LTQE, the enrichment ratio was not above 0.25.
In the case of RQEP, the enrichment ratio was not above 0.25.
As for KNQP, the enrichment ratio is not above 0.25.
The value for HDIF was not above 0.25; that for FVVL was 0.591; that for NVVF was not above 0.25.
Under ACTE stands 0.76; under ADTF, not above 0.25; under LCFV, not above 0.25.
As for LCSG, the enrichment ratio was not above 0.25.
As for MHIY, the enrichment ratio was not above 0.25.
On to VVAT, for which the enrichment ratio was not above 0.25.
On to GCDQ, for which the enrichment ratio is not above 0.25.
With PIGC, the enrichment ratio was not above 0.25.
With TEIY, the enrichment ratio was found to be 0.671.
As for EMWS, the enrichment ratio is not above 0.25.
In the case of SSGL, the enrichment ratio is 8.55.
As for PHAY, the enrichment ratio was not above 0.25.
In the case of APIK, the enrichment ratio is not above 0.25.
For KHWK, the enrichment ratio is not above 0.25.
On to SGWK, for which the enrichment ratio is not above 0.25.
Under DHQH stands not above 0.25; under VQCA, not above 0.25.
The value for WGHN was not above 0.25; that for WSRV was not above 0.25; that for GLTQ was not above 0.25.
Regarding SNEY, the enrichment ratio was not above 0.25.
In the case of HTFW, the enrichment ratio was not above 0.25.
Turning to WRRS, the enrichment ratio is not above 0.25.
On to QHYN, for which the enrichment ratio is not above 0.25.
AARI: the enrichment ratio is not above 0.25.
With RWQN, the enrichment ratio is not above 0.25.
For the variant TLNC, the enrichment ratio was not above 0.25.
Regarding RIRT, the enrichment ratio is not above 0.25.
In the case of VGGW, the enrichment ratio was not above 0.25.
Under KPGP stands not above 0.25; under TPFD, not above 0.25.
The value for IWDN was not above 0.25; that for HACW was not above 0.25.
Consider WLSV, for which the enrichment ratio is not above 0.25.
For the variant VAYE, the enrichment ratio was not above 0.25.
Consider AYGR, for which the enrichment ratio is not above 0.25.
For the variant GNNS, the enrichment ratio is not above 0.25.
Take GRHD: the enrichment ratio was not above 0.25.
As to DKCA, the enrichment ratio is not above 0.25.
Regarding EEHF, the enrichment ratio was not above 0.25.
On to WFTA, for which the enrichment ratio is not above 0.25.
FRQA: the enrichment ratio was not above 0.25.
Take ELRK: the enrichment ratio was not above 0.25.
KFRS: the enrichment ratio is not above 0.25.
In the case of KLMY, the enrichment ratio was not above 0.25.
Take YKGL: the enrichment ratio is not above 0.25.
Under VFKS stands not above 0.25; under PWPY, not above 0.25.
Consider AYCT, for which the enrichment ratio was not above 0.25.
For the variant SNQQ, the enrichment ratio was 2.29.
For the variant QQSP, the enrichment ratio was not above 0.25.
In the case of RIPN, the enrichment ratio was not above 0.25.
Turning to WCYD, the enrichment ratio was not above 0.25.
Regarding MPEG, the enrichment ratio was not above 0.25.
Under QMVG stands not above 0.25.
For LSDL, the enrichment ratio is not above 0.25.
With DYGI, the enrichment ratio is not above 0.25.
Under NCIH stands not above 0.25; under MKRS, not above 0.25; under AVEF, not above 0.25.
With HPTS, the enrichment ratio was not above 0.25.
The value for FAYA was not above 0.25; that for KEIM was not above 0.25; that for ALQN was not above 0.25.
Turning to WTAK, the enrichment ratio was not above 0.25.
Turning to THHN, the enrichment ratio was not above 0.25.
The value for LKRM was not above 0.25; that for APHS was not above 0.25.
For TFIR, the enrichment ratio was not above 0.25.
Consider YCMQ, for which the enrichment ratio was not above 0.25.
With GNHV, the enrichment ratio is not above 0.25.
For IWPE, the enrichment ratio was not above 0.25.
Under HEMI stands 12.7.
In the case of DFMS, the enrichment ratio is not above 0.25.
As to DCTM, the enrichment ratio is not above 0.25.
As for QRGR, the enrichment ratio is not above 0.25.
Consider SMVF, for which the enrichment ratio was found to be 3.83.
For FMGN, the enrichment ratio was not above 0.25.
On to NLCI, for which the enrichment ratio was not above 0.25.
The value for DDIS was not above 0.25; that for IERC was not above 0.25; that for TPAL was not above 0.25.
Consider TFPA, for which the enrichment ratio was not above 0.25.
For the variant VNDF, the enrichment ratio is not above 0.25.
The value for DNSR was not above 0.25.
Turning to AWIY, the enrichment ratio was not above 0.25.
Take MRTL: the enrichment ratio is not above 0.25.
For the variant VAII, the enrichment ratio is not above 0.25.
With TGLG, the enrichment ratio came out at 10.1.
The value for AFNA was not above 0.25.
As to NPWH, the enrichment ratio was not above 0.25.
The value for SAIG was 7.02.
With GSGC, the enrichment ratio was not above 0.25.
The value for LVRV was not above 0.25; that for WSKW was not above 0.25; that for KIFH was not above 0.25.
SLSV: the enrichment ratio came out at 7.73.
Under ICIQ stands not above 0.25.
The value for ECFI was not above 0.25.
Turning to LADK, the enrichment ratio is not above 0.25.
With VCYE, the enrichment ratio is not above 0.25.
In the case of ITDF, the enrichment ratio was not above 0.25.
For NPIR, the enrichment ratio was not above 0.25.
Turning to PEVM, the enrichment ratio was not above 0.25.
Take RDSA: the enrichment ratio was not above 0.25.
For MLAV, the enrichment ratio was 5.83.
As for YPFP, the enrichment ratio was not above 0.25.
PSCS: the enrichment ratio was not above 0.25.
Under EMQY stands not above 0.25.
EESG: the enrichment ratio is not above 0.25.
With YNDR, the enrichment ratio was not above 0.25.
With EMFG, the enrichment ratio is not above 0.25.
RDPM: the enrichment ratio is not above 0.25.
On to RIAF, for which the enrichment ratio was not above 0.25.
As to QELM, the enrichment ratio is not above 0.25.
SPLR: the enrichment ratio was not above 0.25.
The value for MAMW was not above 0.25.
PNDV: the enrichment ratio was not above 0.25.
With IMWT, the enrichment ratio is not above 0.25.
With WPGP, the enrichment ratio was not above 0.25.
As to SVVP, the enrichment ratio is not above 0.25.
